Results on four molecules are retold here after PubChem BioAssay (NCI).

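Dose response: 5 concentrations. Exposure: 48 h. Format: 96-well plates. Endpoint: linear interpolation; highest concentration if not reached. GI50 is the concentration that inhibits growth by half. Definition used: TGI = concentration required for complete inhibition of growth.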

The assay deals with NCI-H322M lung. The assay is described as follows: NCI-60 cell line screen, 48 h.
Turning to `CC1(C)CC[C@]23CC[C@]4(C)[C@H](CC[C@@H]5[C@@]6(C)CC[C@H](N)C(C)(C)[C@@H]6CC[C@]54C)[C@H]2[C@H]1OC3=O`, the GI50 was 1.64 µM and the TGI amounted to 2.99 µM.
In the same order, the values of `CC[C@]12C=CCN3CC[C@@]4(c5ccc(OC)cc5N(C)[C@H]4[C@@](O)(C(=O)OC)[C@@H]1OC(=O)CCCC[P+](c1ccc(F)cc1)(c1ccc(F)cc1)c1ccc(F)cc1)[C@@H]32` are 50 µM and greater than 100 µM.
As for `CN(C)c1ccnc(CNCCSC2(c3ccc(C(F)(F)F)cc3)c3ccccc3CCc3ccccc32)c1`, the GI50 was 0.495 µM and the TGI is 15.1 µM.
In the same order, the values of `CC(Nc1ncnc2ccc(-c3ccc4oc(N)nc4c3)cc12)c1ccccc1` (stereo not drawn) are 2.16 µM and 6.93 µM.
